{"source": "paper PMC6366860", "about": "(Journal of molecular and cellular cardiology, 2018)", "binders": {"B1": {"name": "wild-type human cMyBP-C C0-C2 (domain or fragment)", "chain": "not shown"}}, "target": "F-actin from rabbit skeletal muscle (rabbit, UniProt P68135)", "assay": "co-sedimentation", "data": [{"binder": "B1", "values": [{"measurement": "Kd", "value": 8.6, "unit": "µM"}]}]}
